Source: publication PMC4336329 (PLoS ONE, 2015)
Hit rate of the full screen: of about 310,000 compounds, about 2,200 (0.71%) showed an effect of 50% or more. The effect is printed as a negative number. This is one part of the list.

target: human ether-à-go-go-related gene (hERG) potassium channel (human, UniProt Q12809); assay: primary screen, population patch clamp on CHO cells stably expressing hERG
Sequence (Q12809 whole entry, looked up): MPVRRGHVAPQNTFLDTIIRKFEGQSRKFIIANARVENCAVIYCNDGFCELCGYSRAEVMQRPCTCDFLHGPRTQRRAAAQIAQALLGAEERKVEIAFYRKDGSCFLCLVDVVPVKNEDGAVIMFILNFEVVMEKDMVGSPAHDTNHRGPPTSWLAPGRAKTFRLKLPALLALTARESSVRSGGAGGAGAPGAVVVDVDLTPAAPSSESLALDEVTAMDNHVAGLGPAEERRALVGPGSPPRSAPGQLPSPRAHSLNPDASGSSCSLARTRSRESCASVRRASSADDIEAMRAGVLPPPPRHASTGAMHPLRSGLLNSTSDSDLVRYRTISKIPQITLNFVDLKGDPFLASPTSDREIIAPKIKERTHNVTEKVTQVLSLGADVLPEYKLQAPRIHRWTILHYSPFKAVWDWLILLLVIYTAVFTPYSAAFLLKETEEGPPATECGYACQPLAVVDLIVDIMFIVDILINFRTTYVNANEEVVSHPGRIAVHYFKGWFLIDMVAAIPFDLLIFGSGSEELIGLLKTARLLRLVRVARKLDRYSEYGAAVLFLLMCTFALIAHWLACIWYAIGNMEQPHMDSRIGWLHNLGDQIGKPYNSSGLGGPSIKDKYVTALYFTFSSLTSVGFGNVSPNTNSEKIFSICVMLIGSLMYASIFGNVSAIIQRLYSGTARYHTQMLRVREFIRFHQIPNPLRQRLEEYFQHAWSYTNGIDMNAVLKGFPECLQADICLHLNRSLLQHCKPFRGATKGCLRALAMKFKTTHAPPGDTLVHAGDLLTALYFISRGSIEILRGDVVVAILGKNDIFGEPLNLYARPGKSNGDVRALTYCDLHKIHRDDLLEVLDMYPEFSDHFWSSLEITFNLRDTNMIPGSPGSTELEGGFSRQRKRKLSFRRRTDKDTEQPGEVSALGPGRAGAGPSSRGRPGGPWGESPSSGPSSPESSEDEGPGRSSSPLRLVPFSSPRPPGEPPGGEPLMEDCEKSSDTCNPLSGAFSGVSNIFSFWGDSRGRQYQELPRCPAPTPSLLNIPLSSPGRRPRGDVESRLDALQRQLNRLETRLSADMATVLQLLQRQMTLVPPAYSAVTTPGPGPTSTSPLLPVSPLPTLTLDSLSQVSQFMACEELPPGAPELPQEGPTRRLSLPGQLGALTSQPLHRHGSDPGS

| SMILES | hERG current change (%, negative = inhibition) at 1uM |
| --- | --- |
| Cc1ccccc1CN(C)CCS(=O)(=O)c1cc(Cl)ccc1Cl | 16.2% |
| COc1ccccc1CC(=O)Nc1ccc(O)cc1C(=O)O | -4.41% |
| CN(CC(=O)Nc1cccc(F)c1)CC(=O)Nc1cc(S(=O)(=O)N2CCOCC2)ccc1Cl | 2.03% |
| CC(=O)Nc1c2c(nn1-c1ccccc1)CS(=O)C2 (stereo not shown) | 17.8% |
| CCCCNC(=O)c1cn(CC)c2cc(N3CCN(C(=O)c4ccco4)CC3)c(F)cc2c1=O | -3.68% |
| NS(=O)(=O)c1cc(C(=O)O)c(NCc2ccco2)cc1Cl | 9.92% |
| COc1ccc(-c2noc(C3CCCN(C(=O)c4ccccc4)C3)n2)cc1 (stereo not shown) | -3.28% |
| CCCCNc1cc(NC(C)=O)cc2cc(OC)c(OC)cc12 | 9.91% |
| Oc1c(C=C2N=c3ccccc3=N2)sc(=S)n1C1CCCCC1 [17505580] | 5.09% |
| COc1ccccc1OC(C)C(=O)N1CCc2ccccc21 (stereo not shown) | 1.33% |
| CCOC(=O)c1c(NC(=O)c2c(Br)cnn2C)c(C#N)nn1-c1ccccc1 | 7.59% |
| COc1ccc(Cl)cc1Nc1nc(N)nc(C(F)(F)F)n1 | -17.4% |
| Cn1c(=O)n(CC(N)=O)c(=O)c2c1nc(Br)n2Cc1ccccc1 | 16.4% |
| COc1c(C)cc(C(=O)C2CCCN(C(=O)/C=C/c3ccccn3)C2)cc1C (stereo not shown) | 4.48% |
| COc1ccc(N2CCN(C(=O)CCC(=O)N3CCOc4ccc(C)cc43)CC2)cc1 | 9.78% |
| Cc1ccc(C(=O)C2CCN(CC(=O)NC3CCCC3)CC2)cc1 | 3.14% |
| O=C(N/N=C/c1c(O)n(C2CCCCC2)c(=S)[nH]c1=O)c1ccccc1 | 11.7% |
| COc1ccc(C(=O)NNC(=O)CCCCC(=O)NNC(=O)c2ccc(OC)cc2)cc1 | 1.74% |
| O=C(c1ccc(Cl)s1)N1CCCC(N2CCN(c3ccc(F)cc3)CC2)C1 (stereo not shown) | -63.2% |
| Fc1ccccc1CN(CCN1CCOCC1)C(=S)Nc1ccccc1Cl | 4.86% |
| BrC(=C\c1ccccc1)/C=N/N1CCN(c2ccccn2)CC1 | 0.856% |
| O=C(/C(=C(\O)c1ccccc1)c1ncc[nH]1)c1ccccc1 | -0.656% |
| Cc1cc(=O)[nH]c(SCc2nnc(-c3ccccc3)o2)n1 | 2.99% |
| O=C(Nc1cc(N2CCOCC2)ncn1)c1ccccc1 | 6.84% |
| Cc1ccc(/C(N)=N/OC(=O)Cc2cccc3ccccc23)cc1 | -3.98% |
